Positions count from the first letter of the chain named. These are yes or no findings as the source states them, for the method shown. Binding seen in cells or lysates may run through a third protein. Some entries that bind do so weakly or less than the wild type. For some of these results: Tags and fused reporters may be left off the sequences shown.
How the values were obtained:
[1] = target: T1, Forkhead box protein L2 (FOXL2), endogenous (human (endogenous in KGN)) (UniProt P58012); experiment: co-IP; endogenous proteins in KGN lysate; IP with anti-FOXL2, anti-XRCC5 or anti-XRCC6 on Dynabeads protein G, immunoblot; also after UV, H2O2, etoposide, MMS, TSA or nicotinamide, SIRT1 overexpression or knock-down, cell-cycle synchronisation
T1 sequence: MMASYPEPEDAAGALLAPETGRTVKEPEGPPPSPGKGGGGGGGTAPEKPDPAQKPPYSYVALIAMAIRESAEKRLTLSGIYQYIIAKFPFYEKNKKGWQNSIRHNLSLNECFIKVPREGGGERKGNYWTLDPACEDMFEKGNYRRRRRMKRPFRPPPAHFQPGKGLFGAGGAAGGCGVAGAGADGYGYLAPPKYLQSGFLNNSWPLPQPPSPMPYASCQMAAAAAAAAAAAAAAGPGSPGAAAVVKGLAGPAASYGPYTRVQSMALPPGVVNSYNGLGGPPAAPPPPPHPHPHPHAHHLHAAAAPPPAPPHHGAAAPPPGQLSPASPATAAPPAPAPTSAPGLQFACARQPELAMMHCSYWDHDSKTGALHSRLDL

Amino acid sequences for entries named in this document (tags omitted).
UniProt P12956: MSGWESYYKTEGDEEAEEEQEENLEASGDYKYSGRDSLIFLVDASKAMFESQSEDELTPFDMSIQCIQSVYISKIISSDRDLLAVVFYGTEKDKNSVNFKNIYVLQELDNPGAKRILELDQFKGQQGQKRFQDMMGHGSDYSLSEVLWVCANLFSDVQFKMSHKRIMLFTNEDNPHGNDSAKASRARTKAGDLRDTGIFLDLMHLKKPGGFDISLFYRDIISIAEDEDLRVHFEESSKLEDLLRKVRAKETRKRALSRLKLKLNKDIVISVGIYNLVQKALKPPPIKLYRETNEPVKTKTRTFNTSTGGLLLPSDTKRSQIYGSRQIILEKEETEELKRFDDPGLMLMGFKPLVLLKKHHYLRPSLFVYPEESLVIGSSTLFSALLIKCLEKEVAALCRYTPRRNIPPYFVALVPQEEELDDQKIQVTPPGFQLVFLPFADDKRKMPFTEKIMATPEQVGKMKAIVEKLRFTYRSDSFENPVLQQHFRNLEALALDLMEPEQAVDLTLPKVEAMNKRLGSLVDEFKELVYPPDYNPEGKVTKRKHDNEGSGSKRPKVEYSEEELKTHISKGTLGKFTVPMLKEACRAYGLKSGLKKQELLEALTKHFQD
UniProt P13010: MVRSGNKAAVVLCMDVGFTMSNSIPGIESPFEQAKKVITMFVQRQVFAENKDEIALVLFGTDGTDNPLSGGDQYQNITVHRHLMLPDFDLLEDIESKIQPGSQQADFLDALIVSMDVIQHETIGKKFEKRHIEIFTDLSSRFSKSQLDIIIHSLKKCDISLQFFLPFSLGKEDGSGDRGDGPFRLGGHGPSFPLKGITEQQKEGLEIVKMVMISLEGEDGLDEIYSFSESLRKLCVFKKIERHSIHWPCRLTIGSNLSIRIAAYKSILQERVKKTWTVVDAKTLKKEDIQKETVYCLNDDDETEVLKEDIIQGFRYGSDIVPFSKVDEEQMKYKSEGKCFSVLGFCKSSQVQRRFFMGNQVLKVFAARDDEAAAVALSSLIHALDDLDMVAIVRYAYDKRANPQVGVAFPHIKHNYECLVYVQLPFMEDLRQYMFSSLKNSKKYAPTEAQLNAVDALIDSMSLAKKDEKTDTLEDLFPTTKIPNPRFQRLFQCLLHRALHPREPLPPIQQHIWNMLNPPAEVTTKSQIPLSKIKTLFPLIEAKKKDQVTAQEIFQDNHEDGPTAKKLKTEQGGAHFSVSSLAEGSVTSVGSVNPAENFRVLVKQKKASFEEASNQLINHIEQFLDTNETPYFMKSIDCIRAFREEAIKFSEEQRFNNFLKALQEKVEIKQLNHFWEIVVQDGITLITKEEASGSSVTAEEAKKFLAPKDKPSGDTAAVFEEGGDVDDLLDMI

[2] = target: T1, Forkhead box protein L2 (FOXL2), endogenous (human (endogenous in KGN)); experiment: co-IP; KGN lysate with ethidium bromide (50 μg/ml) or DNase I (10 U) added; IP with anti-FOXL2, western blot
[3] = target: T2, Myc-tagged FOXL2 N105S (human) (UniProt P58012); experiment: co-IP; 293T cells transfected with Myc-tagged FOXL2 forms (with Flag-XRCC5 or XRCC6 fragments where indicated); IP with anti-Myc, immunoblot
T2 sequence: T1 sequence with N105S

[4] = target: T3, Myc-tagged full-length wild-type (WT) FOXL2 (human) (UniProt P58012); experiment: as above
T3 sequence: T1 sequence

[5] = target: T4, Myc-tagged FOXL2 Q53X (human) (UniProt P58012); experiment: as above
T4 sequence: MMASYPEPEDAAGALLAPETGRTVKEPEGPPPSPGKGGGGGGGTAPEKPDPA

[6] = target: T5, Myc-tagged FOXL2 I84S (human) (UniProt P58012); experiment: as above
T5 sequence: T1 sequence with I84S

[7] = target: T6, Myc-tagged FOXL2 C134W (human) (UniProt P58012); experiment: as above
T6 sequence: T1 sequence with C134W

[8] = target: T3, Myc-tagged full-length wild-type (WT) FOXL2 (human); experiment: co-IP; FOXL2 overexpressed in 293T cells (Supplementary Fig. 2a); constructs and antibodies not given
[9] = target: T1, Forkhead box protein L2 (FOXL2), endogenous (human (endogenous in KGN)); experiment: co-IP; endogenous proteins in various non-tumour cell lines (Supplementary Fig. 2b-d)

| binding [1] | binding [2] | binding [3] | binding [4] | binding [5] | binding [6] | binding [7] | binding [8] | binding [9] | Substance |
| --- | --- | --- | --- | --- | --- | --- | --- | --- | --- |
| binds | binds | binds | binds | no binding | no binding | binds |  |  | XRCC6 (Ku70), endogenous (from UniProt P12956 1-609) |
| binds | binds | binds | binds | no binding | no binding | binds | binds | binds | XRCC5 (Ku80), endogenous (from UniProt P13010 1-732) |

Source: PMC7181608
